# ChEMBL document CHEMBL1157539, “Thousands of chemical starting points for antimalarial lead identification” (Nature, 2010)
# Over roughly 13,000 compounds, “IFI” has its median near 4; the highest 2% begin near 17. This is one part of the list.
# Experiment: GSK_TCMDC: Inhibition Frequency Index (IFI). The number of non-kinase HTS assays where a compound showed > 50 % inhibition, expressed as a percentage of the number of such assays in which the compound was tested (-0 is zero)
# Format: functional
row,Compound,IFI
1,O=C(Cn1cnc2c(nnn2Cc2ccccc2F)c1=O)Nc1ccc2c(c1)OCCO2,0.88%
2,Cc1cc(CN2CCC(N3CC(c4ccccc4)(c4ccccc4)OC3=O)C2)ccc1O (stereo unspecified),7.14%
3,COc1cccc(CNC(=O)NC2CCN(c3ccnc(Nc4ccc(F)cc4)n3)C2)c1 (stereo unspecified),7.58%
4,COc1cccc(C(=O)Nc2ccc(Nc3nc(C)cc(N(C)C)n3)cc2)c1,7.14%
5,COc1ccc(CNCc2ccc(-c3ccc(-c4nc5ccccc5[nH]4)cc3)cc2)cc1,13%
6,Cc1ccc2[nH]c(NC#N)nc2c1,-0%
7,COc1ccc2ccc(F)c(CC(=O)N3CCOC(CNCc4cccc(-c5ccsc5)n4)C3)c2n1 (stereo unspecified),0%
8,C[C@@H](CC1CCCCC1)NCc1cccc(NS(=O)(=O)c2ccc(O)c(-c3ccno3)c2)c1,5.56%
9,O=[N+]([O-])c1ccc(-n2nc(Cc3ccccc3)n(Cc3cccc(F)c3)c2=S)c(C(F)(F)F)c1,2.86%
10,Cc1ccc(C2(CN3CCC(NC(=O)c4cc[nH]n4)CC3)CCCCC2)cc1,6.25%
11,O=C(/C=C/c1ccc(C(F)(F)F)cc1)NCCCCCN1CCN(C(=O)Nc2ccc(Cl)c(Cl)c2)CC1,13.7%
12,O=c1cc(NCCCNCc2cc(F)cc(C(F)(F)F)c2)[nH]c2ccccc12,2.19%
13,CN1CCN(c2cc3c(cc2Cl)CCN3C(=O)Nc2ccc(NC(=O)c3ccc(C(F)(F)F)cc3)cc2)CC1,5.71%
14,O=C(NC1CCN(Cc2ccc(Cl)cc2)CC1)c1cn(-c2ccccc2)nc1-c1cccnc1,1.43%
15,Oc1ccc(CNCC2CCN(CC3CCCCC3)CC2)cc1,1.38%
16,Cc1cccc2nc(-c3ccc(-c4ccc(CNCc5cccc(N)c5)cc4)cc3)[nH]c12,8.65%
17,C=CCN1C(=O)c2[nH]nc(-c3cc(C)c(C)cc3O)c2C1c1cccc(Br)c1 (stereo unspecified),4.65%
18,CCN(CC)CCCC(C)Nc1c2ccccc2nc2ccc3ccccc3c12 (stereo unspecified),0.73%
19,CCCC(C)NC(=O)[C@H](CC1CCCCC1)NC(=O)c1ccc(O)c(-c2cccc(C(F)(F)F)c2)c1 (stereo partly specified),2.99%
20,CC(C)CN1CCN(CCNc2c3ccccc3nc3ccccc23)CC1,5.11%
21,OCCN1CCN(Cc2ccc(-c3ccc(-c4nc5ccccc5[nH]4)cc3)cc2)CC1,6.86%
22,CN1CCN(Cc2cccc(-c3ccc4c(Nc5ccc(F)cc5Cl)ccnc4c3)c2)CC1,5.84%
23,COc1cc(Cc2cnc(N)nc2N)cc(OCCCS(=O)(=O)O)c1OC,1.52%

row,Compound,IFI
1,COc1ccc2nccc([C@@H](O)CN3CCC(NCc4cc5ccccc5cn4)CC3)c2n1,3.33%
2,Cc1c(C(=O)N2CCc3cc4nccc(N5CCN6CCC[C@H]6C5)c4cc32)cnn1-c1ccc(C#N)cc1,0.73%
3,CC(C)CNC(=O)CN1C(=O)C(c2ccccc2)(c2ccccc2)N=C1N,1.16%
4,Oc1ccc(Cl)cc1CN1CCCC(COC(c2ccc(F)cc2)c2ccc(F)cc2)C1 (stereo unspecified),1.56%
5,CCCCCCOc1ccc2ccccc2c1CNCCCCCCNCc1c(OCCCCCC)ccc2ccccc12,22.8%
6,O=C(/C=C/c1ccc(Cl)c(Cl)c1)N1CCC(CCN2CCC(c3c[nH]c4ccncc34)CC2)CC1,1.48%
7,COc1cccc2c1CCN(CCN1CCC(CNC(=O)c3ccc(-c4ccc(C#N)cc4)cc3)CC1)C2,10.8%
8,CC1(C)[C@H]2CC[C@@H](CNc3nc(NCC(=O)Nc4ccc5ccccc5c4)nc(N4CCC(N5CCCC5)CC4)n3)[C@@H]1C2,4.96%
9,CCc1nc2c(cnn2CC)c(NC2CCOCC2)c1CNC(=O)c1ccoc1C,1.85%
10,COc1cc(C=CC(=O)N2CCC3(CC2)CC(=O)c2ccccc2O3)cc(OC)c1OC,0%
11,CC(C)c1nc2c(N)nc(N)nc2nc1N,2.08%
12,N#Cc1ccc(C(=O)NC2CCN(CCCCCNC(=O)/C=C/c3ccc(Cl)c(Cl)c3)CC2)cc1,3.17%
13,O=S(=O)(c1ccc(OCc2ccc(Cl)cc2)cc1)c1cc2c(cc1OCc1ccccc1)CCN(C1CCC1)CC2,5.38%
14,Cc1ccccc1-c1nc2c(CN3CCC(O)(c4ccccc4)CC3)c(O)ccc2[nH]1,3.96%
15,CC(CN1CCN(C)CC1)C(=O)Nc1ccc(-c2ccc(-c3nc4ccccc4[nH]3)cc2)cc1 (stereo unspecified),2.78%
16,OCCNc1nc(Nc2ccc(Cl)cc2)nc2ccccc12,3.37%
17,c1ccc(-c2nc(Nc3ccncc3)sc2-c2ccccc2)cc1,10.8%
18,Fc1ccc2[nH]c3c(NCCN4CCCCC4)ncnc3c2c1,1.4%
19,CSc1ccc(CN2CCC(NC(=O)c3ccc(-c4cccc(Cl)c4)s3)CC2)cc1,15.5%
20,CCc1ccc(CN2CCC(CNC(=O)c3cc(-c4cccc(F)c4)cs3)C2)cc1 (stereo unspecified),8.16%
21,Cn1cncc1-c1ccc2ncnc(Nc3ccc(OCc4ccccc4)cc3)c2c1,1.45%
22,COc1ccc(CN(C)CC(O)COc2ccc(NC(=O)c3cccc4c(=O)c5cccc(OC)c5[nH]c34)cc2)cc1OC (stereo unspecified),9.93%
23,COc1ccc(-c2cccc(NC(=O)c3ccc(F)cc3)c2)cc1CNC(C)C,5.94%

row,Compound,IFI
1,Cc1c(CNCCN2CCCCC2)c(C(=O)O)c(C)n1Cc1ccc(Cl)cc1,1.41%
2,COc1ccc(N2CCN(c3nc(N)c4cc(OC)c(OC)cc4n3)CC2C)cc1 (stereo unspecified),7.41%
3,CCOC(=O)c1ccc(NC(=O)N[C@@H](Cc2ccccc2)C(=O)NC2CCN(Cc3ccc(O)c(OC)c3)C2)cc1 (stereo partly specified),2.92%
4,COc1cc2nc(N3CCN(c4nc(N)c5cc(OC)c(OC)cc5n4)CC3)nc(N)c2cc1OC,3.52%
5,COc1ccc2nccc([C@@H](O)CN3CCC(NC(=O)/C=C/c4ccc(F)c5ccccc45)CC3)c2c1,9.63%
6,Cc1cc(NC(=O)Nc2ccc(C(C)C)cc2)c2ccccc2n1,6.76%
7,COc1cccc2sc(Nc3nc(-c4ccccn4)cs3)nc12,11.1%
8,Cc1cc(=O)c(-c2ccc(Oc3ccc(C(F)(F)F)cc3)cc2)c(C)n1O,9.49%
9,NC1=NC(c2ccccc2)(c2ccccc2)C(=O)N1CCCCc1ccccc1,15.7%
10,Cc1cc(N[C@@H](CC(C)C)C(=O)NCc2cccs2)nc(NCCc2ccc(F)cc2)n1,13.6%
11,COc1cc(Cc2cnc(N)nc2N)ccc1OCc1cccc(Oc2ccccc2)c1,8.67%
12,Cc1noc(C)c1-c1cccc(CNCc2ccc(-c3cccc(-c4nc5cccc(C)c5[nH]4)c3)cc2)c1,3.88%
13,CC[C@H]1CN2CCc3cc(OC)c(OC)cc3[C@@H]2C[C@@H]1CC1=NCCc2c1[nH]c1ccc(OCc3ccccc3)cc21,2.22%
14,Cc1cc(-c2cc3nc4c(c(O)n3n2)CCCC4)c(C)o1,0%
15,CC(C)C[C@H](NC(=O)c1cc2ccccc2s1)C(=O)N[C@H]1CCN(Cc2ccc(OC[C@@H]3CCCN3C)c(Cl)c2)C1,6.67%
16,COc1cccc(-c2cc3nc4c(c(NCCCn5ccnc5)n3n2)CCCC4)c1,7.83%
17,COc1ccc(Nc2nccc(NCCNC(=O)c3cc4ccccc4s3)n2)cc1,6.15%
18,O=C(Nc1ccon1)c1cc(-c2cccnc2)nc2ccc(Cl)cc12,0.93%
19,Oc1c(C=Nn2cnnc2)sc2ccccc12,1.48%
20,CCCCCCCN1CC[C@@H](CCCc2ccnc3ccc(OC)cc23)[C@@H](CNC)C1,10.8%
21,Nc1nc(N)c2c(Cl)c(N3CCOCC3)ccc2n1,2.82%
22,COc1ccc(Nc2nc(=Nc3ccccc3)nc(NN=Cc3cc(Cl)ccc3O)[nH]2)cc1,7.53%
23,CN(c1ccc(NC(=O)Nc2cc(C(C)(C)C)on2)cc1)c1ccnc(NCCOC(=O)Nc2cc(C(C)(C)C)on2)n1,9.42%

row,Compound,IFI
1,NC(=O)c1ccc(C(=O)Nc2cccc(-c3cccc(-c4nc5cc(C(F)(F)F)ccc5[nH]4)c3)c2)cc1,3.51%
2,O=[N+]([O-])c1cccc(S(=O)(=O)N2CCN(CC(O)COc3ccc(-c4ccccc4)cc3)CC2)c1 (stereo unspecified),0%
3,O=C(/C=C/c1ccc(Cl)c(Cl)c1)NCCCCCCN1CCN(C(=O)Nc2ccc(OC(F)F)cc2)CC1,8.8%
4,O=C(NCCN1CCCC1)c1cccc(-c2ccc(-c3nc4cc(F)ccc4[nH]3)s2)c1,5.41%
5,O=C(NCCc1ccc(Cl)c(Cl)c1)[C@@H]1CCCN1C(=O)c1ccc(O)c(-c2cccc(C(F)(F)F)c2)c1,0.73%
6,COc1cccc(Nc2nccc(NCC(O)c3cccc(C(F)(F)F)c3)n2)c1 (stereo unspecified),8.74%
7,OC(CNc1cccc(Cl)c1)Cn1c2ccc(Cl)cc2c2cc(Cl)ccc21 (stereo unspecified),1.5%
8,CCc1ccc(C2CCN(CCCCNC(=O)c3ccc(-c4ccc(C(F)(F)F)cc4)cc3)CC2)c(OCCO)c1,7.89%
9,O=C(Cn1c(CCc2cccc(F)c2F)nc(=O)c2ccccc21)N(CCN1CCCC1)Cc1ccc(-c2ccc(C(F)(F)F)cc2)cc1,5.84%
10,N=C(NCCc1ccc(Cl)c(Cl)c1)c1ccc2ccccc2c1,6.72%
11,CCc1cccc(OCC2CCCN(c3ccc(C(=O)NC4CC4)cn3)C2)c1 (stereo unspecified),3.92%
12,Nc1ccc(Oc2ccc(Cc3cnc(N)nc3N)cc2)cc1,1.53%
13,c1ccc(CCNCc2ccc(-c3cccc(-c4nc5ccccc5[nH]4)c3)cc2)nc1,6.54%
14,Cc1ccccc1N1CCN(c2ccc(C(=O)Nc3ccccc3)cn2)CC1,8.33%
15,CC1(C)N=C(N)N=C(N)N1OCCCOc1cc(Cl)c(Cl)cc1Cl,6.43%
16,CC(C)N1CCN(CCCNc2c3ccccc3nc3ccccc23)CC1,2.94%
17,O=C(C(=O)c1ccc(Nc2ccnc3cc(-c4ccccn4)ccc23)cc1)c1ccccc1,2.9%
18,COCCNCc1cccc(-c2ccc3c(Nc4ccc(Oc5ccccc5)cc4)ccnc3c2)c1,6.62%
19,COc1cc(C)nc2ccc(NC(=O)Nc3ccccc3[N+](=O)[O-])cc12,6.25%
20,Cc1ccc(OCC2CCN(c3ncc(C(=O)NCCCN4CCCC4=O)cc3Cl)CC2)cc1,1.85%
21,CCN1CCc2nc3ccccc3c(C(=O)Nc3ccc(C#N)cc3)c2C1,-0%
22,COC(=O)c1cccc(CNCc2cccc(-c3ccc(-c4nc5cc(C(F)(F)F)ccc5[nH]4)cc3)c2)c1,5.94%
